According to the supplement of paper PMC3334620:
Over roughly 33,000 sequences, “E-score (-0.5 to 0.5)” has its median near -0.053; the highest 2% begin near 0.37. The list shows a part of the results.

Molecular target: Hap1 (UniProt P0CE41)
Experiment: PBM E-score (8-mer binding enrichment) (E-score (-0.5 to 0.5)); higher = stronger / more preferred TF binding; most listed sequences are background and not binding sites
Conditions: protein concentration: 200 nM; construct: GST-DNA-binding domain
How it was run: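 Yeast transcription factors carrying a GST tag, as full-length proteins or DNA-binding domains, were produced by PURExpress in vitro transcription/translation. About 100-200 nM protein was applied to universal all-10-mer Agilent arrays, double-stranded by primer extension on fresh or once-stripped slides. Bound protein was detected with fluorescent anti-GST, and scans were normalised with masliner. The Universal PBM Analysis Suite gave each ungapped eight-base word, pooled with its reverse complement, an E-score, a modified Wilcoxon-Mann-Whitney statistic.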

UniProt P0CE41, sequence (P0CE41 whole entry): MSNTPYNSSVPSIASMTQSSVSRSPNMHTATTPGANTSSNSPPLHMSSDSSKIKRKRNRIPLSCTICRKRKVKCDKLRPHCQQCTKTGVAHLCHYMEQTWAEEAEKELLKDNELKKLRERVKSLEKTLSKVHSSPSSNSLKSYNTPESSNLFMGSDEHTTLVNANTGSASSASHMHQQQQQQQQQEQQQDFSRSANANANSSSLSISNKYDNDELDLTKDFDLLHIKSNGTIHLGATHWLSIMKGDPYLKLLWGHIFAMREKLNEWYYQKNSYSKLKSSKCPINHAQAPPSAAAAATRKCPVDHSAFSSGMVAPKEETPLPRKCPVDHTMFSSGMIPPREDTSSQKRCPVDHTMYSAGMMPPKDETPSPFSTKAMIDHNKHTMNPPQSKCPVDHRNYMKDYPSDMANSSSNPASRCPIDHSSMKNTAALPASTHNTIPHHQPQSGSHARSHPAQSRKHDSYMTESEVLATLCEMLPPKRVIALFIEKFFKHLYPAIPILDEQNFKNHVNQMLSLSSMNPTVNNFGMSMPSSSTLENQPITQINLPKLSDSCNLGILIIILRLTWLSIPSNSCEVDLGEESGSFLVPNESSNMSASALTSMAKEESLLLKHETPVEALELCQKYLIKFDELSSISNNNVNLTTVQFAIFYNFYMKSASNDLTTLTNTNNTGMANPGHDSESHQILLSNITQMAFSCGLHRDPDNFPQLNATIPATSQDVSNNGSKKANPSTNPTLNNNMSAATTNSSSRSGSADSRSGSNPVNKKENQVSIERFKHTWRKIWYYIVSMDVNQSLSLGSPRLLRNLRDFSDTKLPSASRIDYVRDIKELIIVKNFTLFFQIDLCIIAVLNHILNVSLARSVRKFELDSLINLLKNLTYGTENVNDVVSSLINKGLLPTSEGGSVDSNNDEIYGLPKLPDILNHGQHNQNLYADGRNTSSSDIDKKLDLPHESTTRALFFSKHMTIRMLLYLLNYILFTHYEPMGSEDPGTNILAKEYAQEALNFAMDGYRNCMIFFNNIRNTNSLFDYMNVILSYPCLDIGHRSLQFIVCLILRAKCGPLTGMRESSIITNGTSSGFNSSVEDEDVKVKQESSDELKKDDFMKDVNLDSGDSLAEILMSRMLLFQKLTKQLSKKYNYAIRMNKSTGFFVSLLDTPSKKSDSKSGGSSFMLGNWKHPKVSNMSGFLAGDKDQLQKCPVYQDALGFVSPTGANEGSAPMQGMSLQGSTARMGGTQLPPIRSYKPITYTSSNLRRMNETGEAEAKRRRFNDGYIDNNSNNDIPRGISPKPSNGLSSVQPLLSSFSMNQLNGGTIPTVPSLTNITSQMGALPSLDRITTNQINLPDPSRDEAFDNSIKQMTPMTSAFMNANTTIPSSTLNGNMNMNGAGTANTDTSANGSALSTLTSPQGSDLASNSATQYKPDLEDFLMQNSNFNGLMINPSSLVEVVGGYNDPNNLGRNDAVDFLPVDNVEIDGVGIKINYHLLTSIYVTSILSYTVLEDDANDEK

Sequence	PBM E-score
TGAACTCA	-0.2
GCCCTGAA	0.0376
AATCGCTA	-0.125
CCTAAAGC	-0.0947
ACCCAACG	-0.0503
ATCCATAC	-0.0502
GGGAGTAC	-0.0432
ATGAAATA	-0.0556
GGGTAGAA	-0.0506
ATACCCTC	0.0941
CCGCATTA	0.295
ATCGAGTA	-0.191
AGTTATGA	-0.135
TCCACTCA	-0.132
CTTTGTGC	-0.158
CGGTCGAC	0.316
GTGTGCGA	-0.0613
GTTGAGGA	-0.122
AAAATAAA	-0.0729
ATTCAAAA	-0.141
TGATGCCA	-0.26
CGGTTGTA	0.245
CGGCGAAC	0.295
AGAGTGAT	-0.162
CTTTAACA	0.0756

Sequence	PBM E-score
GTTAATTA	0.133
ATGTTCTC	-0.0906
CTACTTTC	0.00229
AGCCGGGA	0.231
ACGGTTCT	-0.0996
ATGTCAGC	0.0299
CGCGGCGA	0.299
AACGGACG	0.305
TCTGAACA	-0.182
ATGGTCTA	-0.234
CCAATAGG	-0.276
CTATTAGA	-0.147
GAAACGTC	-0.0511
ACTAGTCA	-0.241
CTCGCATA	-0.145
AAGGGTTG	-0.189
AAATATCA	-0.0874
GTGCCAAA	-0.14
CCCGATAC	0.432
CCGGCCCA	0.231
CTACGAAC	-0.165
AAGTTACC	0.134
ATACAGAT	-0.249
ATCCCCTC	-0.16
CGTACGAA	0.0545

Sequence	PBM E-score
CTTGTTAA	0.0389
AACTGCCT	-0.0937
AAACTGTC	-0.267
CGGGGTGC	0.21
CCTGCTTA	-0.175
GAGATGTA	0.0156
CTGCTGTA	-0.0401
GAAGAAGA	-0.16
AAACTGCT	-0.214
AAGCTCCG	0.411
AGCGAAGA	-0.0555
AAACACAG	-0.0167
CCCGTTAC	0.253
TCGTCAAA	-0.0953
CTACGGTA	0.0838
ACGAACTA	-0.131
CTCTTCAA	-0.0246
AAACTGAC	0.0832
GATTTTCC	0.187
TCGGTCCA	0.278
ATGGCGAC	-0.0373
GTACTGTA	-0.119
ACTAATAG	0.0473
GTAGGCAC	-0.0328
CTACACAG	-0.32

Sequence	PBM E-score
AACGATTC	0.118
ACTTTCGG	0.303
CAAGTCGG	0.151
AATTTGGA	-0.278
CAAAGTAA	-0.00429
ACTTCAAA	-0.0283
ACCCTTCG	0.0839
ACCAATGC	0.129
CCATCCGG	0.254
CGATATAA	0.308
AGAATTGG	-0.0217
CCGGAAAA	0.432
GTGACTCA	-0.194
ACCACCTG	0.0143
GCAGTCAC	-0.231
CAAACCGC	0.184
ACGCGCAA	0.207
CGATGCCA	-0.206
CACTCATA	-0.299
AATTGTTG	-0.295
GATAAAGA	0.0742
ACAGATTG	-0.0719
AAGGGCTC	-0.311
AGCATTTG	0.0779
AAAGAAGG	-0.166

Sequence	PBM E-score
GCGAAAGC	0.0298
AGTACAGG	0.0392
ATAATGTC	0.205
CCGTAACA	0.151
CGGCTGGC	0.0597
ACTTCCAA	-0.157
ATGCACAT	-0.225
ATGTAAGA	-0.0436
ATTTGTCA	-0.162
ACACGACG	-0.203
AATCAAGT	-0.13
AACTATGT	-0.184
ACTAGAAT	-0.167
CCGGGGAG	0.314
ACCAGGGA	-0.302
CGAAAAAG	0.151
ACGCCCGA	0.371
ACTTCCCA	-0.221
AAAATTTA	-0.0757
GCATCAAC	-0.0399
CCTGTAAG	-0.333
CGACCGGA	0.412
GTGGAAGA	-0.0918
TATTGAGA	-0.006
CCTTTAAG	-0.0679

Sequence	PBM E-score
ACCGGCGG	0.418
CTAGGTGC	-0.121
CGGCCGAC	0.415
ACAGAGAA	-0.16
ACTGGCGG	0.0743
GTAAGTCA	-0.219
ACCGAGTG	0.133
TCATAAGA	-0.0459
CGCGGTAC	0.2
TACATCCA	-0.221
AGGCTGCG	-0.115
CCTGGGCC	-0.0121
TAATTTCA	-0.0367
CCAGTAAA	-0.09
AGTATTCA	-0.192
TCATCCCA	-0.291
GACTCTAA	-0.0481
CCGGATAG	0.316
ACCAAAAG	-0.165
AATGCAGC	-0.0955
GGGGCATA	0.0612
AGTCTTTA	-0.223
AGTATCAT	-0.0146
CTCGCGAC	0.0984
CCAAGACA	-0.0655

Sequence	PBM E-score
TACGGGCA	0.0438
ACGCACAT	-0.0567
ATAGATAG	-0.201
ATTCCTCA	-0.162
ACACGTCA	-0.156
CCGAAACA	0.288
CTTGACTA	-0.169
AGCTGGAA	-0.227
CCAAGCAG	-0.155
AGGCGTGG	-0.301
AACCAGTC	-0.071
AATCTGTG	-0.0888
AACTAGCG	0.15
CTCATGAC	0.0168
AGACGGCG	-0.015
CTAACCCC	0.235
GAGGGATA	-0.105
ATTACGTG	-0.191
CGCTTACG	-0.0315
GGATCTAA	0.293
ACACTCCA	-0.162
CTATCAGC	-0.119
CCATTGAA	-0.141
GGATCGTA	-0.0215
GTCGGCTA	0.163

Sequence	PBM E-score
ACAAAGCT	-0.0144
AATAGTAG	-0.0382
AAAGTACG	-0.0494
GTCATACA	-0.166
GTTTGATA	-0.0186
CGCAATTA	0.311
ATTATACC	0.258
TAGCCAAA	0.0352
ATATTGCA	-0.0459
TGACCCAA	-0.231
CTCTAGTC	-0.137
GCCTTCAA	-0.237
ATATCGCC	0.414
AGTGCATG	-0.216
CCTAGCGC	-0.0954
AACACACT	-0.292
CAACCGTC	0.0195
ACTTTCAC	-0.0742
GGCACGTA	-0.127
AGTCGGAG	0.174
GCAACGGC	0.152
CTTTCGAC	-0.0279
ATACGGGG	0.119
ATCAGAAC	-0.025
AAACTGGC	-0.195

Sequence	PBM E-score
AGCTGGCA	-0.219
AGGGGGTA	-0.2
CCTTGCGA	-0.0737
ACACATTA	-0.223
ACGCATAA	0.00131
GGCCCTCA	-0.0657
AGCCCTGG	-0.267
GCCACTAC	-0.042
AAGAGGTA	0.138
GACATCTC	0.0929
CGTTGTAG	0.114
AACGCTTA	-0.1
TATGCGAA	0.0244
CTTAGGCA	-0.22
ACCGTCAC	0.0721
CAAAGGAA	-0.129
AAGTCTAT	-0.185
CATTTGGG	-0.054
CGCTATTA	0.164
AGGTATCG	0.253
CTGGGGTC	-0.172
CACCAATA	-0.149
CGCACGTC	0.0527
GCAATTCA	-0.0129
GAGCCGTA	0.237

Sequence	PBM E-score
CCCCACTC	-0.186
AGCTGGCG	-0.089
ACCTGCTC	0.149
CATGTAAC	-0.0354
TAGAGTGA	-0.0303
AGACTAAT	-0.0594
ACCAGATA	-0.0999
AGCAATTA	0.121
AACTGAGG	-0.205
GGTGAACA	-0.211
AATGACTG	-0.28
ACGTTCCA	-0.0379
ACGCAATC	0.0706
CCTGGACG	-0.139
AACTAGGT	0.16
GTAACTAC	-0.0248
AAATCTCT	-0.0274
CGACAGAC	-0.0306
CGGAGGCA	0.209
CGAAGCCA	-0.133
AGGTACAA	-0.266
ATTCCGAC	0.307
GCGCCTTA	-0.105
AACCACAA	-0.0525
GACCCCGC	0.134

Sequence	PBM E-score
ACTATTTG	0.00158
AGTGGACG	0.0359
AACCTGTA	-0.192
CTTGGCTA	-0.361
CCACCCTC	0.0653
CCCAGGAA	-0.174
ATGCCGAA	0.346
ACGTTGCA	-0.207
GAAGACGA	-0.025
ATTCGAAT	-0.2
CACTTTTA	-0.098
AATCCGGA	0.433
AATGCGTG	-0.165
CGCCTCAA	-0.0947
CGTGTGTA	-0.0443
AACGCGAA	0.121
GTCGAGTA	-0.115
GTTAGACA	0.0281
ACGCCGCC	0.256
AGTGAGTA	-0.131
GCGCGCAC	0.187
CGGTGACG	0.0359
CTCATCTC	0.0439
ATAACTAT	-0.131
GGCATGAC	-0.201

Sequence	PBM E-score
TACTAATA	0.0975
AAGGTCTA	-0.0867
AATCGCAT	0.128
TATTTGAA	-0.0491
CCAACACA	-0.094
ATTGAAGC	0.0958
ACTCATAC	-0.0998
CTTAGACA	-0.282
CTAGTAGC	-0.108
CCAGCGGC	0.0619
CCTTAGCG	-0.0884
GCCCAGAA	-0.0212
GCCTTGAC	-0.13
AAAAAGGT	-0.187
AAGTAACA	-0.178
CCGCTGAA	-0.00989
CCTGCTCA	-0.15
ACTACGAG	-0.0984
GCGGCGAA	0.229
TAGTAGAA	0.0227
ATTGTAGA	-0.148
GGGCTTAA	0.296
AGTTATTC	-0.0219
ATACAGTG	-0.27
ACTTGGTA	-0.215

Sequence	PBM E-score
CTGGGGAC	-0.345
GGGGTACC	-0.00107
AGGGTAGG	-0.161
AGTGGTTA	-0.171
CCATACGC	-0.125
AAGCCTTA	-0.0914
AAAGACTG	-0.272
GTCGTGCA	-0.209
ACGGAGCA	0.271
ACTTTACT	-0.162
CAACTGGC	-0.145
CCTCCACC	-0.0838
GAGATCGA	0.0587
GCTGACCC	-0.0201
ACGATCAA	-0.167
TGCGCGAA	0.0575
TCCATCGA	-0.0782
GGTAGAGA	-0.026
AAATCGCG	0.103
CAATACCA	-0.091
TCTACTAA	-0.198
CATATGCG	0.031
AACCTCAA	-0.103
GGCTCTTA	0.169
ATTTACCG	0.376

Sequence	PBM E-score
GTCCGGTA	0.419
CGTATTTC	0.176
ATGGATCC	0.153
GATTCGAC	-0.148
ATGGGGTA	0.0604
TCGGAAGA	0.199
GTACCAAA	-0.0856
GGGTTGTA	0.0474
CGAGGACG	0.15
CGTGTCGC	0.258
ACAGTCAG	-0.274
CACCAACC	-0.00494
ACAATTAA	-0.00929
CACACTGG	-0.156
AGAAGCGA	-0.00823
CAATCAGA	-0.209
AAGATGAG	-0.313
GAGCTAGC	-0.127
CTCGCTAC	-0.108
